Drawing on article PMC10579536, this text covers EC50 for one substance.

Assay [1] addresses Recombinant human angiopoietin-1 (human) (UniProt Q15389). In words: ELISA. A general note: In an ELISA, binding on a coated surface is turned into a signal by an enzyme label.
Assay [2] has as its target T1, Recombinant ADAMTS-13 (human) (UniProt Q76LX8).
T1 sequence: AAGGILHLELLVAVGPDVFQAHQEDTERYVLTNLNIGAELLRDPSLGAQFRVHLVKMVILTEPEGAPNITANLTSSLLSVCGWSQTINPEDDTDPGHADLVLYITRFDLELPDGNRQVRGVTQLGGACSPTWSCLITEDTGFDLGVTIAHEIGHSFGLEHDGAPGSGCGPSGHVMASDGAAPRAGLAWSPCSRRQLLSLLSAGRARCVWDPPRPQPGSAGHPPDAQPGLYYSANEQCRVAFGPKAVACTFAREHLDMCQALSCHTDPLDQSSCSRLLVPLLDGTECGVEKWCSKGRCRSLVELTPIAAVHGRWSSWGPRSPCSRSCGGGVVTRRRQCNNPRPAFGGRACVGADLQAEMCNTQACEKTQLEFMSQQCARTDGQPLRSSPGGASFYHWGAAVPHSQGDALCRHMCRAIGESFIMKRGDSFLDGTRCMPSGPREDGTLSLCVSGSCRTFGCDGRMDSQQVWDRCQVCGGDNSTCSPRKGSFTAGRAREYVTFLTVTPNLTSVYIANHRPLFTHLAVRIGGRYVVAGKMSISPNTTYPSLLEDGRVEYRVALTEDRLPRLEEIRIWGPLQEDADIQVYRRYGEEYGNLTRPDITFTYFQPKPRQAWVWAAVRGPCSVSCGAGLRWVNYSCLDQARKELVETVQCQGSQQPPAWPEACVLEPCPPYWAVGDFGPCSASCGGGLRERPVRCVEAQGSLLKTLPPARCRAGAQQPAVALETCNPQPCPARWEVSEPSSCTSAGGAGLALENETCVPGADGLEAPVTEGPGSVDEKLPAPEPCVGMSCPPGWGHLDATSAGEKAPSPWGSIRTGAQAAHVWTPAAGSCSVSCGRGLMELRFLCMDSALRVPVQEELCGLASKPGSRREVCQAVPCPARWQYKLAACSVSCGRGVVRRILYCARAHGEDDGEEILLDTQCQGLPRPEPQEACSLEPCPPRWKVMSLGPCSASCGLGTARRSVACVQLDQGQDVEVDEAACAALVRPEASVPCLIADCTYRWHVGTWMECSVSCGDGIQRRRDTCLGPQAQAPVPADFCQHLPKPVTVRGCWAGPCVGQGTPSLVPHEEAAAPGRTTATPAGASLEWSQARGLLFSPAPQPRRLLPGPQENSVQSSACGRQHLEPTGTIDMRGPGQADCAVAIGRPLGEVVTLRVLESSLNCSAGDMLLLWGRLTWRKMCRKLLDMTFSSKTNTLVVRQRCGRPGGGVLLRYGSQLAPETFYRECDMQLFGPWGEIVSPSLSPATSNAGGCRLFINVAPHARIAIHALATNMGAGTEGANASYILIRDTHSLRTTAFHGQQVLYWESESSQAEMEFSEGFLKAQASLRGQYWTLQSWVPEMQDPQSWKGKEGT
In words: ELISA.

Sequence of UniProt Q15389 (Q15389 16-498): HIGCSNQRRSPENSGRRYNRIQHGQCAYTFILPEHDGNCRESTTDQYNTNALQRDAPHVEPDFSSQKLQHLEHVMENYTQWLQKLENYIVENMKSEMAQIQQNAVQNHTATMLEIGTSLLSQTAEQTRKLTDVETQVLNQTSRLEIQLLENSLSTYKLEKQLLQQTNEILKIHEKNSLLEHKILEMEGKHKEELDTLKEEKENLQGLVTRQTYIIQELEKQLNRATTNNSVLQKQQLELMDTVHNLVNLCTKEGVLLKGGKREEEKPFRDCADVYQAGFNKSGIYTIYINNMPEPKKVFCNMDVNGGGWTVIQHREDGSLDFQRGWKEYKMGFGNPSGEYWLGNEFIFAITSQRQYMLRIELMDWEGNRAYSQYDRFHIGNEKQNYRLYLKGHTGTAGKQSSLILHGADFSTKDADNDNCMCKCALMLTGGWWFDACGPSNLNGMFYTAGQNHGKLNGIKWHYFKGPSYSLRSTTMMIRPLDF

“von Willebrand factor (plasma-derived) (a stretch of the chain, no sequence given) (natural protein)”: the concentration giving a half-maximal response (EC50) in assay [1] stood at 7.2 nM; in assay [2], 1.2 nM.

Usually EC50 stands for the concentration needed to bring the measured effect to its halfway point.
